This note sets out measurements from the supplement of paper PMC10886265.

MIC by broth microdilution (CLSI, 0.25-128 µg/mL, 18 h, 37 °C) of Gram-negative wastewater isolates picked on carbapenem-selective plates; higher = less susceptible. No active / inactive call. Isolates were selected for resistance.

Assay in all cases: Broth microdilution (CLSI), cation-adjusted Mueller-Hinton broth, two-fold steps from 0.25 to 128 µg/mL, 18 h at 37 °C.
A general note: Broth dilution looks for growth in wells or tubes with falling amounts of substance.

Compound in one test: C[C@@H](O)[C@H]1C(=O)N2C(C(=O)O)=C(SCCNC=N)C[C@H]12 [Imipenem]
Compound in another test: C[C@@H](O)[C@H]1C(=O)N2C(C(=O)O)=C(S[C@@H]3CN[C@H](C(=O)N(C)C)C3)[C@H](C)[C@H]12 [Meropenem]
Compound in another test: C[C@@H](O)[C@H]1C(=O)N2C(C(=O)O)=C(S[C@@H]3CN[C@H](C(=O)Nc4cccc(C(=O)O)c4)C3)[C@H](C)[C@H]12 [Ertapenem]

As a reminder, the MIC is the lowest concentration that inhibits growth of the organism. As for “Klebsiella pneumoniae isolate primary sludge #11 (carbapenemase genes (PCR): OXA-48)”, the figures for the MIC with Imipenem, in the test with Meropenem and with Ertapenem were 128 µg/mL, 128 µg/mL and 64 µg/mL, respectively.
Regarding “Klebsiella pneumoniae isolate primary sludge #62 (carbapenemase genes (PCR): KPC)”, the MIC in the test with Imipenem is 64 µg/mL; in the test with Meropenem, 128 µg/mL; with Ertapenem, 64 µg/mL.
As to “Klebsiella pneumoniae isolate primary sludge #71 (carbapenemase genes (PCR): KPC)”, the values for the MIC with Imipenem, with Meropenem and in the test with Ertapenem were 64 µg/mL, 128 µg/mL and 32 µg/mL, respectively.
Taken in the same sequence, the figures for “Klebsiella pneumoniae isolate primary sludge #81 (carbapenemase genes (PCR): KPC)” were 32 µg/mL, 64 µg/mL and 32 µg/mL.
Turning to “Klebsiella pneumoniae isolate primary sludge #109 (carbapenemase genes (PCR): KPC)”, the MIC with Imipenem stood at 32 µg/mL; in the test with Meropenem, 64 µg/mL; in the test with Ertapenem, 32 µg/mL.
Take “Klebsiella pneumoniae isolate primary sludge #157 (carbapenemase genes (PCR): KPC)”: the MIC with Imipenem is 64 µg/mL; with Meropenem, 128 µg/mL; with Ertapenem, 32 µg/mL.
The like results for “Klebsiella pneumoniae isolate primary sludge #160 (carbapenemase genes (PCR): KPC)” were, in that order, 16 µg/mL, 64 µg/mL and 32 µg/mL.
“Klebsiella pneumoniae isolate primary sludge #162 (carbapenemase genes (PCR): KPC)”: the MIC with Imipenem stood at 16 µg/mL; with Meropenem it was 16 µg/mL; in the test with Ertapenem it was 8 µg/mL.
In the case of “Klebsiella pneumoniae isolate primary sludge #196 (carbapenemase genes (PCR): KPC)”, the MIC with Imipenem was 32 µg/mL; with Meropenem, 64 µg/mL; with Ertapenem it was 32 µg/mL.
As to “Klebsiella pneumoniae isolate primary sludge #197 (carbapenemase genes (PCR): KPC)”, the values for the MIC with Imipenem, in the test with Meropenem and with Ertapenem were 16 µg/mL, 32 µg/mL and 32 µg/mL, respectively.
Regarding “Klebsiella pneumoniae isolate primary sludge #201 (carbapenemase genes (PCR): KPC)”, the MIC with Imipenem amounted to 16 µg/mL; with Meropenem, 32 µg/mL; in the test with Ertapenem, 32 µg/mL.
On to “Klebsiella pneumoniae isolate primary sludge #202 (carbapenemase genes (PCR): KPC)”, for which the MIC with Imipenem, with Meropenem and with Ertapenem was 32 µg/mL in each case.
Regarding “Klebsiella pneumoniae isolate primary sludge #203 (carbapenemase genes (PCR): KPC)”, the MIC stood at 64 µg/mL with Imipenem, 32 µg/mL in the test with Meropenem and 32 µg/mL with Ertapenem.
As for “Klebsiella pneumoniae isolate primary sludge #224 (carbapenemase genes (PCR): KPC)”, the results for the MIC with Imipenem, with Meropenem and in the test with Ertapenem were 64 µg/mL, 128 µg/mL and 32 µg/mL, respectively.
For “Klebsiella pneumoniae isolate primary sludge #231 (carbapenemase genes (PCR): KPC)”, the MIC worked out at 16 µg/mL with Imipenem, 64 µg/mL in the test with Meropenem and 32 µg/mL with Ertapenem.
In the case of “Klebsiella pneumoniae isolate primary sludge #249 (carbapenemase genes (PCR): KPC)”, the figures for the MIC in the test with Imipenem, with Meropenem and with Ertapenem were 64 µg/mL, above 128 µg/mL and 32 µg/mL, respectively.
For “Klebsiella pneumoniae isolate primary sludge #251 (carbapenemase genes (PCR): KPC)”, the MIC with Imipenem came out at 64 µg/mL; with Meropenem, 64 µg/mL; in the test with Ertapenem, 32 µg/mL.
With “Klebsiella pneumoniae isolate primary sludge #252 (carbapenemase genes (PCR): OXA-48)”, the MIC came out at 8 µg/mL with Imipenem, 16 µg/mL in the test with Meropenem and 8 µg/mL with Ertapenem.
With “Klebsiella pneumoniae isolate primary sludge #257 (carbapenemase genes (PCR): KPC)”, the figures for the MIC in the test with Imipenem, with Meropenem and in the test with Ertapenem were 32 µg/mL, 64 µg/mL and 8 µg/mL, respectively.
Taken in the same sequence, the figures for “Klebsiella pneumoniae isolate secondary sludge #4 (carbapenemase genes (PCR): OXA-48)” were 128 µg/mL, 128 µg/mL and 64 µg/mL.
For “Klebsiella pneumoniae isolate secondary sludge #82 (carbapenemase genes (PCR): KPC+GES)”, the MIC amounted to 64 µg/mL with Imipenem, 128 µg/mL with Meropenem and 32 µg/mL with Ertapenem.
For “Klebsiella pneumoniae isolate secondary sludge #84 (carbapenemase genes (PCR): OXA-48+KPC)”, the MIC turned out to be 64 µg/mL with Imipenem, 128 µg/mL in the test with Meropenem and 32 µg/mL in the test with Ertapenem.
The like results for “Klebsiella pneumoniae isolate secondary sludge #87 (carbapenemase genes (PCR): KPC)” were, in that order, 64 µg/mL, 128 µg/mL and 32 µg/mL.
Consider “Klebsiella pneumoniae isolate secondary sludge #173 (carbapenemase genes (PCR): KPC)”, for which the MIC is 16 µg/mL with Imipenem, 64 µg/mL with Meropenem and 8 µg/mL with Ertapenem.
As for “Klebsiella pneumoniae isolate secondary sludge #176 (carbapenemase genes (PCR): KPC)”, the MIC in the test with Imipenem turned out to be 16 µg/mL; with Meropenem it was 32 µg/mL; with Ertapenem, 8 µg/mL.
In the case of “Klebsiella pneumoniae isolate secondary sludge #178 (carbapenemase genes (PCR): KPC)”, the MIC with Imipenem came to 16 µg/mL; with Meropenem, 32 µg/mL; with Ertapenem, 8 µg/mL.
With “Klebsiella pneumoniae isolate secondary sludge #179 (carbapenemase genes (PCR): KPC)”, the values for the MIC with Imipenem, in the test with Meropenem and with Ertapenem were 16 µg/mL, 32 µg/mL and 8 µg/mL, respectively.
For the test system “Klebsiella pneumoniae isolate secondary sludge #180 (carbapenemase genes (PCR): KPC)”, the MIC with Imipenem was found to be 32 µg/mL; with Meropenem, 64 µg/mL; in the test with Ertapenem, 8 µg/mL.
The like results for “Klebsiella pneumoniae isolate secondary sludge #181 (carbapenemase genes (PCR): KPC)” were, in that order, 32 µg/mL, 64 µg/mL and 8 µg/mL.
Taken in the same sequence, the figures for “Klebsiella pneumoniae isolate secondary sludge #182 (carbapenemase genes (PCR): KPC)” were 32 µg/mL, 64 µg/mL and 8 µg/mL.
For “Klebsiella pneumoniae isolate secondary sludge #183 (carbapenemase genes (PCR): KPC)”, the MIC with Imipenem came to 32 µg/mL; with Meropenem, 64 µg/mL; in the test with Ertapenem, 8 µg/mL.
For “Klebsiella pneumoniae isolate secondary sludge #185 (carbapenemase genes (PCR): KPC)”, the results for the minimum inhibitory concentration (MIC) with Imipenem, with Meropenem and with Ertapenem were 16 µg/mL, 32 µg/mL and 8 µg/mL, respectively.
For the test system “Klebsiella pneumoniae isolate secondary sludge #191 (carbapenemase genes (PCR): KPC)”, the MIC is 32 µg/mL with Imipenem, 64 µg/mL with Meropenem and 8 µg/mL in the test with Ertapenem.
Take “Klebsiella pneumoniae isolate secondary sludge #193 (carbapenemase genes (PCR): KPC)”: the MIC with Imipenem turned out to be 32 µg/mL; with Meropenem, 64 µg/mL; with Ertapenem, 8 µg/mL.
Taken in the same sequence, the figures for “Klebsiella pneumoniae isolate secondary sludge #215 (carbapenemase genes (PCR): KPC)” were 32 µg/mL, 64 µg/mL and 8 µg/mL.
Consider “Klebsiella pneumoniae isolate sewage #2 (carbapenemase genes (PCR): OXA-48)”, for which the MIC came out at 8 µg/mL with Imipenem, 32 µg/mL with Meropenem and 4 µg/mL in the test with Ertapenem.
The like results for “Klebsiella pneumoniae isolate sewage #5 (carbapenemase genes (PCR): OXA-48)” were, in that order, 8 µg/mL, 32 µg/mL and 4 µg/mL.
Taken in the same sequence, the figures for “Klebsiella pneumoniae isolate sewage #8 (carbapenemase genes (PCR): OXA-48)” were 16 µg/mL, 32 µg/mL and 4 µg/mL.
Turning to “Klebsiella pneumoniae isolate sewage #9 (carbapenemase genes (PCR): KPC)”, the MIC is 32 µg/mL with Imipenem, above 128 µg/mL in the test with Meropenem and 8 µg/mL with Ertapenem.
With “Klebsiella pneumoniae isolate sewage #30 (carbapenemase genes (PCR): KPC+GES)”, the results for the MIC with Imipenem, in the test with Meropenem and with Ertapenem were 64 µg/mL, 128 µg/mL and 64 µg/mL, respectively.
For the test system “Klebsiella pneumoniae isolate sewage #61 (carbapenemase genes (PCR): OXA-48)”, the MIC with Imipenem came out at 128 µg/mL; in the test with Meropenem, 128 µg/mL; in the test with Ertapenem it was 64 µg/mL.
